Hit rate of the full screen: of about 150,000 compounds, about 540 (0.36%) showed an effect of 50% or more. The list shows a part of the results.

The subject of this assay is Plasmodium falciparum. In words: Primary screen in NF54 nanoGlo assay, in single point, at 2uM, 72h; a lower Z score goes with more inhibition. It is filed as functional, Erythrocyte. The settings on record: timepoint 72 hour.
For the compound `Cc1cc(CN(C)[C@@H](C)c2ccc(F)cc2)on1`, the “% Inhibition” value was determined as 1% and the Z score is given as -0.07.
As for `Cc1ccc(-c2noc(C(F)(F)C3CCNCC3)n2)o1`, the “% Inhibition” value is on record as -4% and the Z score is 0.71.
In the case of `Cc1ccc(C)c(S(=O)(=O)NCCCOC2CCCCC2)c1`, the “% Inhibition” value was 3% and the Z score is given as -0.39.
Taken in the same sequence, the figures for `COc1ccc(CNC(=O)CN2C(=O)CCn3nc(-c4ccc(OC)cc4)cc32)cc1` were 1% and -0.08.
Consider `CCN(CCC(=O)Nc1nc2ccccc2s1)Cc1noc(C)n1`, for which the “% Inhibition” value is -7% and the Z score is reported as 1.12.
Take `O=C(Cc1c(F)cccc1Cl)N1CC(S(=O)(=O)NC2CCCC2)C1`: the “% Inhibition” value is given as -16% and the Z score was determined as 2.68.
As for `CC(C)C(=O)N1CCc2ccc(OCC(=O)NCc3ccccc3)cc2[C@@H]1c1ccccc1`, the “% Inhibition” value was -20% and the Z score amounted to 1.93.
Taken in the same sequence, the figures for `COC(=O)CN[C@H](c1c(F)cccc1F)C(F)(F)F` were -10% and 1.15.
In the same order, the values of `CN1CCC2(CC1)CN(C(=O)c1cc3sccc3[nH]1)CCCN2C` are 7% and -1.4.
`COc1cc(OC23CCCN(CC2)C3)ccc1CN1CCCC1` (stereo not given): the “% Inhibition” value is recorded as -4% and the Z score is on record as 0.61.
For the compound `CCCn1cnnc1[C@H](C)NC(=O)c1c[nH]c2ccc(OC)cc2c1=O`, the “% Inhibition” value was -13% and the Z score stood at 1.4.
In the same order, the values of `Cn1cc(C#N)cc1C(=O)OCc1cccnc1-n1cccn1` are -1% and 0.1.
Taken in the same sequence, the figures for `COc1ccccc1/C=C/CN1CCC(c2cc[nH]n2)CC1` were 3% and -0.57.
In the same order, the values of `CN(CC1CCC2(CCCC2)O1)C1C2CCOC2C1(C)C` (stereo not given) are 7% and -1.28.
Turning to `O=C(Cc1ccc(S(=O)(=O)Nc2ccc(Cl)cc2)s1)N1CCCCC1`, the “% Inhibition” value is given as 3% and the Z score was -0.65.
In the case of `Cc1nn(C)cc1[C@H](C)NC(=O)NCc1nc(C(F)(F)F)no1`, the “% Inhibition” value is given as -7% and the Z score came to 1.34.
On to `CCC(C)OCC(=O)N1CC[C@H](C(=O)OC)[C@H](C)C1` (stereo not given in full), for which the “% Inhibition” value turned out to be 3% and the Z score was -0.4.
As to `Cc1cc(CN(C)Cc2c(C(=O)N3CCCCC3)nc3sccn23)n[nH]1`, the “% Inhibition” value is on record as -7% and the Z score turned out to be 1.25.
In the same order, the values of `COc1cccc(N2CCN(C(=O)c3cn4nc(OC)ccc4n3)CC2)c1` are -7% and 1.03.
Taken in the same sequence, the figures for `CC(C)(CNC1[C@@H]2CCCC[C@@H]2C1(C)C)NS(C)(=O)=O` (stereo not given in full) were -7% and 0.7.
Taken in the same sequence, the figures for `COc1ccc(NC(=O)N2CC[C@H](C3CC3)C2)cc1OC` were -3% and 0.58.
On to `O=C(NC1(c2cccs2)CCCC1)c1cccs1`, for which the “% Inhibition” value worked out at 4% and the Z score is -0.52.
For `C[C@@H](CCC(=O)N(C)Cc1cc2cc(F)ccc2[nH]1)N1CCOCC1`, the “% Inhibition” value worked out at 4% and the Z score was -0.8.
As to `CC(C)N1C2CCC1CN(C(=O)c1ccc(OCC3CC3)nc1)CC2` (stereo not given), the “% Inhibition” value turned out to be 2% and the Z score is -0.15.
Consider `COc1ccc(CC(=O)N[C@@H](Cn2nccn2)C(C)C)cc1OC`, for which the “% Inhibition” value is on record as 2% and the Z score is on record as -0.37.
Take `O=C(CS(=O)(=O)c1ccc2c(c1)S(=O)(=O)N=CN2)Nc1ccc(F)cc1`: the “% Inhibition” value was determined as 1% and the Z score was -0.12.
With `O=S1(=O)CCCC1CNC1CCCCC1C1CCCCC1` (stereo not given), the “% Inhibition” value is given as -2% and the Z score is on record as 0.18.
In the same order, the values of `Cc1ccc(-n2[nH]c(C(=O)N3CCN(C)C[C@H]3C(C)C)cc2=O)cc1` are 1% and -0.11.
Taken in the same sequence, the figures for `O=C(NCc1cccnc1)[C@]1(F)CCCN(S(=O)(=O)c2ccccc2)C1` were 5% and -0.85.
For the compound `COc1ccc(Cc2nc([C@H](N)[C@H](C)O)n(-c3cccnc3)n2)cc1`, the “% Inhibition” value was -12% and the Z score is recorded as 1.6.
Taken in the same sequence, the figures for `COC[C@H](C)N1CCN(C(C)=O)CC1` were -6% and 0.76.
Taken in the same sequence, the figures for `COc1ccccc1N1CCN(C(=O)CN2C(=O)c3ccccc3Oc3ncccc32)CC1` were 6% and -0.98.
Regarding `CN(C)c1cccc(C(=O)Nc2cccc3nsnc23)c1`, the “% Inhibition” value is -5% and the Z score is listed as 0.52.
With `CC1(O)CCCN(C(=O)NC2CCCOCC2)C1` (stereo not given), the “% Inhibition” value is -9% and the Z score is recorded as 0.77.
Taken in the same sequence, the figures for `CCCCN(C(=O)c1cc(CN2CCC(O)CC2)on1)C1CCCCCC1` were -13% and 1.29.
On to `CC(=O)c1ccc(N2CCN(C3CCC(C)C3)CC2)cc1` (stereo not given), for which the “% Inhibition” value is listed as -7% and the Z score stood at 1.22.
Taken in the same sequence, the figures for `Fc1ccc(Cl)cc1CN1CCO[C@H](C2CC2)C1` were -2% and 0.36.
For `COc1ccc2ncn(CCCOC3CCCC3)c(=O)c2c1`, the “% Inhibition” value is -11% and the Z score was 0.98.
Taken in the same sequence, the figures for `Cc1ccc(S(=O)(=O)Nc2cccc(C(=O)N3CCC[C@H]3C(=O)NC3CCCC3)c2)c(C)c1` were 18% and -2.07.
Taken in the same sequence, the figures for `CCOC(=O)c1nc2ccccc2nc1Nc1cccc(OC)c1` were 3% and -0.32.
On to `C[C@]1(F)CCN(C(=O)c2ccsn2)C1`, for which the “% Inhibition” value is -1% and the Z score is 0.17.
In the same order, the values of `Cc1cc(C(=O)NCCN2C(=O)COC2=O)nn1C` are -7% and 1.33.
Turning to `CC1CCN(c2nc3c(c(Oc4cccc(F)c4)n2)CN(C(=O)Nc2cccc(Cl)c2)CC3)CC1`, the “% Inhibition” value was -18% and the Z score worked out at 2.82.
Taken in the same sequence, the figures for `Cc1cccc(C#N)c1/N=C1\CCCN1C` were 7% and -0.82.
In the same order, the values of `Cc1cc(=O)c(C(=O)N[C@@H](C)c2nc(C3CC3)no2)cn1C` are -14% and 2.54.
Taken in the same sequence, the figures for `CS(=O)(=O)c1ccc(-c2nnc(NC(=O)COc3ccc(Cl)cc3Cl)o2)cc1` were -4% and 0.89.
On to `Cc1cncc(C(=O)NC[C@H](O)C2CCCCC2)c1`, for which the “% Inhibition” value is -6% and the Z score is 0.63.
As to `Cc1cc(C)n(C)c(=O)c1C(=O)Nc1ccccc1CN1CCCCC1`, the “% Inhibition” value is -15% and the Z score was 1.47.
As to `CC(C)Nc1nc(NC2CCCC2)nc(N2CCOCC2)n1`, the “% Inhibition” value is reported as 28% and the Z score is -3.31.
In the same order, the values of `Cc1ccc2oc(-c3noc(/C=C/c4ccco4)n3)c(C)c2c1` are 7% and -0.84.
Taken in the same sequence, the figures for `Cc1cc(NCc2cccnc2N2CCN(c3ccccn3)CC2)nc(N)n1` were -3% and 0.37.
For `CCOc1ccc(N2C[C@@H](c3nnc(NC(=O)CCC4CCCC4)o3)CC2=O)cc1`, the “% Inhibition” value is reported as -6% and the Z score worked out at 0.88.
Taken in the same sequence, the figures for `O=C(c1ccccc1)N1CCN(C[C@H](O)c2ccco2)CC1` were -10% and 1.99.
On to `O=C(O)CC[C@H]1CCCN(Cc2ccoc2)C1`, for which the “% Inhibition” value is 6% and the Z score was -1.2.
In the same order, the values of `CCn1ccnc1CN1CC[C@@]2(CCCN(CC3CCCCC3)C2=O)C1` are -7% and 0.99.

The % Inhibition is the relative decrease from the control value, in per cent.

Source of the values: ChEMBL document CHEMBL4888484, “Replenishing the malaria drug discovery pipeline: Screening and hit evaluation of the MMV Hit Generation Library 1 (HGL1) against asexual blood stage Plasmodium falciparum ,using a nano luciferase reporter read-out” (2022).
